In the supplement of paper PMC10369915:
This is one part of the list. Cut-off read from the data, not from the text of the source: active = 3.2 or more and inactive = the rest. Most of these values are background signal.

Experiments:
Test in all cases: enrichment score (SH2-bound / input frequency) (ratio); bacterial display of known human phosphotyrosine sites (pTyr-Var adds point mutants) read by sequencing; higher = stronger binding; tyrosines were phosphorylated by kinases first
Settings in all cases: peptide library: pTyr-Var
SHP2 C-SH2 domain E139D = molecular target: SHP2 C-SH2 domain E139D
[1] = molecular target: SHP2 C-SH2 domain wild-type
SHP2 N-SH2 domain L43F = molecular target: SHP2 N-SH2 domain L43F
SHP2 N-SH2 domain T42A = molecular target: SHP2 N-SH2 domain T42A
SHP2 N-SH2 domain T52S = molecular target: SHP2 N-SH2 domain T52S
[2] = molecular target: SHP2 N-SH2 domain wild-type

Measured: enrichment score
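Note: displayed peptides selected on beads carrying the immobilized SH2 domain, with library peptides lacking any tyrosine serving as negative controls.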

B1: MYO9A_Y203_Y203C_YF (peptide)
chain: KFVKMCDNHQL
inactive: SHP2 C-SH2 domain E139D 0.813 | [1] 0.641 | SHP2 N-SH2 domain L43F 0.706 | SHP2 N-SH2 domain T42A 0.757 | SHP2 N-SH2 domain T52S 0.887 | [2] 0.784

B2: MYO1D_Y585_R588H (peptide)
chain: ASKEPYYVHCI
inactive: SHP2 C-SH2 domain E139D 0.76 | [1] 0.897 | SHP2 N-SH2 domain L43F 0.93 | SHP2 N-SH2 domain T42A 0.845 | SHP2 N-SH2 domain T52S 0.831 | [2] 0.968

B3: MYH7_Y386 (peptide)
chain: ADKSAYLMGLN
inactive: SHP2 C-SH2 domain E139D 0.712 | [1] 0.8 | SHP2 N-SH2 domain L43F 0.502 | SHP2 N-SH2 domain T42A 0.643 | SHP2 N-SH2 domain T52S 0.634 | [2] 0.719

B4: MYH7_Y1852 (peptide)
chain: IKELTYQTEED
inactive: SHP2 C-SH2 domain E139D 0.69 | [1] 0.656 | SHP2 N-SH2 domain L43F 0.543 | SHP2 N-SH2 domain T42A 0.56 | SHP2 N-SH2 domain T52S 0.606 | [2] 0.617

B5: MYOC_Y479 (peptide)
chain: SSMIDYNPLEK
inactive: SHP2 C-SH2 domain E139D 0.576 | [1] 0.727 | SHP2 N-SH2 domain L43F 0.548 | SHP2 N-SH2 domain T42A 0.622 | SHP2 N-SH2 domain T52S 0.567 | [2] 0.554

B6: MYO7A_Y1668_S1666C (peptide)
chain: PTDCVYVMPTV
inactive: SHP2 C-SH2 domain E139D 0.86 | [1] 1.15 | SHP2 N-SH2 domain L43F 1.11 | SHP2 N-SH2 domain T42A 0.861 | SHP2 N-SH2 domain T52S 0.933 | [2] 1.5

B7: MYL12B_Y143 (peptide)
chain: EVDELYREAPI
inactive: SHP2 C-SH2 domain E139D 0.636 | [1] 0.715 | SHP2 N-SH2 domain L43F 0.67 | SHP2 N-SH2 domain T42A 0.607 | SHP2 N-SH2 domain T52S 0.73 | [2] 0.773

B8: MYH7_Y386_K383N (peptide)
chain: ADNSAYLMGLN
inactive: SHP2 C-SH2 domain E139D 0.652 | [1] 0.729 | SHP2 N-SH2 domain L43F 0.728 | SHP2 N-SH2 domain T42A 0.653 | SHP2 N-SH2 domain T52S 0.644 | [2] 0.846

B9: MYH7_Y266 (peptide)
chain: ADIETYLLEKS
inactive: SHP2 C-SH2 domain E139D 0.731 | [1] 0.59 | SHP2 N-SH2 domain L43F 0.647 | SHP2 N-SH2 domain T42A 0.522 | SHP2 N-SH2 domain T52S 0.647 | [2] 0.683

B10: MYH7_Y386_A385V (peptide)
chain: ADKSVYLMGLN
inactive: SHP2 C-SH2 domain E139D 0.853 | [1] 1.31 | SHP2 N-SH2 domain L43F 0.79 | SHP2 N-SH2 domain T42A 0.972 | SHP2 N-SH2 domain T52S 0.718 | [2] 0.833

B11: MYLK_Y846_R845C (peptide)
chain: GGSDCYGSLRP
inactive: SHP2 C-SH2 domain E139D 0.718 | [1] 0.645 | SHP2 N-SH2 domain L43F 0.752 | SHP2 N-SH2 domain T42A 0.487 | SHP2 N-SH2 domain T52S 0.551 | [2] 0.88

B12: MYO3A_Y1396_H1400Y_YF (peptide)
chain: HNLFSYPTKFE
inactive: SHP2 C-SH2 domain E139D 1.87 | [1] 1.21 | SHP2 N-SH2 domain L43F 1.43 | SHP2 N-SH2 domain T42A 1.76 | SHP2 N-SH2 domain T52S 1.66 | [2] 1.36

B13: MYH7_Y715_R719Q (peptide)
chain: PNRILYGDFQQ
inactive: SHP2 C-SH2 domain E139D 0.761 | [1] 0.868 | SHP2 N-SH2 domain L43F 0.879 | SHP2 N-SH2 domain T42A 0.883 | SHP2 N-SH2 domain T52S 0.92 | [2] 1.27

B14: MYO5A_Y1245_R1246C (peptide)
chain: PGAPAYCVLME
inactive: SHP2 C-SH2 domain E139D 0.935 | [1] 1.61 | SHP2 N-SH2 domain L43F 0.916 | SHP2 N-SH2 domain T42A 0.991 | SHP2 N-SH2 domain T52S 0.904 | [2] 1.33

B15: MYO1D_Y586_YF (peptide)
chain: SKEPFYVRCIK
inactive: SHP2 C-SH2 domain E139D 0.562 | [1] 0.717 | SHP2 N-SH2 domain L43F 0.616 | SHP2 N-SH2 domain T42A 0.58 | SHP2 N-SH2 domain T52S 0.507 | [2] 0.937

B16: MYH7_Y410_T412N (peptide)
chain: KVGNEYVNKGQ
inactive: SHP2 C-SH2 domain E139D 0.619 | [1] 0.612 | SHP2 N-SH2 domain L43F 0.506 | SHP2 N-SH2 domain T42A 0.549 | SHP2 N-SH2 domain T52S 0.68 | [2] 0.629

B17: MYO5A_Y1245 (peptide)
chain: PGAPAYRVLME
inactive: SHP2 C-SH2 domain E139D 0.763 | [1] 0.734 | SHP2 N-SH2 domain L43F 0.626 | SHP2 N-SH2 domain T42A 0.996 | SHP2 N-SH2 domain T52S 0.688 | [2] 0.767

B18: MYH7_Y386_L390V (peptide)
chain: ADKSAYLMGVN
inactive: SHP2 C-SH2 domain E139D 0.543 | [1] 0.585 | SHP2 N-SH2 domain L43F 0.512 | SHP2 N-SH2 domain T42A 0.7 | SHP2 N-SH2 domain T52S 0.67 | [2] 0.808

B19: MYLK_Y846 (peptide)
chain: GGSDRYGSLRP
inactive: SHP2 C-SH2 domain E139D 0.621 | [1] 0.657 | SHP2 N-SH2 domain L43F 0.569 | SHP2 N-SH2 domain T42A 0.677 | SHP2 N-SH2 domain T52S 0.564 | [2] 0.824

B20: MYH7_Y582 (peptide)
chain: FSLIHYAGIVD
inactive: SHP2 N-SH2 domain L43F 3.13 | SHP2 N-SH2 domain T52S 2.52 | [2] 1.97
active: SHP2 C-SH2 domain E139D 4.25 | [1] 7.18 | SHP2 N-SH2 domain T42A 6.26

B21: MYH7_Y609 (peptide)
chain: TVVGLYQKSSL
inactive: SHP2 C-SH2 domain E139D 1.05 | [1] 1.06 | SHP2 N-SH2 domain L43F 0.738 | SHP2 N-SH2 domain T42A 0.939 | SHP2 N-SH2 domain T52S 0.916 | [2] 0.99

B22: MYL6_Y89_T85I (peptide)
chain: GIYEDYVEGLR
inactive: SHP2 C-SH2 domain E139D 0.675 | [1] 0.839 | SHP2 N-SH2 domain L43F 0.772 | SHP2 N-SH2 domain T42A 0.728 | SHP2 N-SH2 domain T52S 0.852 | [2] 0.673

B23: MYH7_Y162_YF (peptide)
chain: ISDNAYQFMLT
inactive: SHP2 C-SH2 domain E139D 0.925 | [1] 0.802 | SHP2 N-SH2 domain L43F 0.956 | SHP2 N-SH2 domain T42A 0.921 | SHP2 N-SH2 domain T52S 0.953 | [2] 0.824

B24: MYH7_Y582_D587V (peptide)
chain: FSLIHYAGIVV
active: [1] 4 | SHP2 N-SH2 domain T42A 5.27 | SHP2 N-SH2 domain T52S 3.75
inactive: SHP2 C-SH2 domain E139D 2.47 | SHP2 N-SH2 domain L43F 2.84 | [2] 2.52

B25: MYO3A_Y1396_H1400Y (peptide)
chain: HNLYSYPTKYE
inactive: SHP2 C-SH2 domain E139D 0.937 | [1] 0.893 | SHP2 N-SH2 domain L43F 0.851 | SHP2 N-SH2 domain T42A 0.712 | SHP2 N-SH2 domain T52S 0.729 | [2] 0.723

B26: MYO3A_Y1396_YF (peptide)
chain: HNLFSYPTKHE
inactive: SHP2 C-SH2 domain E139D 1.58 | [1] 1.22 | SHP2 N-SH2 domain L43F 1.73 | SHP2 N-SH2 domain T42A 1.78 | SHP2 N-SH2 domain T52S 1.79 | [2] 1.48

B27: MYO3B_Y993 (peptide)
chain: IRRQGYSHRIL
inactive: SHP2 C-SH2 domain E139D 0.265 | [1] 0.278 | SHP2 N-SH2 domain L43F 0.245 | SHP2 N-SH2 domain T42A 0.291 | SHP2 N-SH2 domain T52S 0.284 | [2] 0.351

B28: MYH7_Y582_G584R (peptide)
chain: FSLIHYARIVD
active: SHP2 C-SH2 domain E139D 5.47 | [1] 5.8 | SHP2 N-SH2 domain T42A 4.58
inactive: SHP2 N-SH2 domain L43F 2.49 | SHP2 N-SH2 domain T52S 2.75 | [2] 2.62

B29: MYH7_Y164_Y162C (peptide)
chain: DNACQYMLTDR
inactive: SHP2 C-SH2 domain E139D 0.791 | [1] 1.1 | SHP2 N-SH2 domain L43F 0.668 | SHP2 N-SH2 domain T42A 0.657 | SHP2 N-SH2 domain T52S 0.627 | [2] 0.764

B30: MYO5C_Y633 (peptide)
chain: FRSSLYLLMET
inactive: SHP2 N-SH2 domain T42A 3.14 | SHP2 N-SH2 domain T52S 2.47
active: SHP2 C-SH2 domain E139D 3.9 | [1] 3.65 | SHP2 N-SH2 domain L43F 3.41 | [2] 3.55

B31: MYO5C_Y526_L522P (peptide)
chain: WPQKLYNNFVN
inactive: SHP2 C-SH2 domain E139D 0.895 | [1] 1.23 | SHP2 N-SH2 domain L43F 0.853 | SHP2 N-SH2 domain T42A 1.07 | SHP2 N-SH2 domain T52S 1.2 | [2] 1.01

B32: MYH7_Y164_YF (peptide)
chain: DNAFQYMLTDR
inactive: SHP2 C-SH2 domain E139D 0.841 | [1] 0.662 | SHP2 N-SH2 domain L43F 0.817 | SHP2 N-SH2 domain T42A 0.666 | SHP2 N-SH2 domain T52S 0.774 | [2] 0.831

B33: MYL6_Y89_YF (peptide)
chain: GTFEDYVEGLR
inactive: SHP2 C-SH2 domain E139D 0.894 | [1] 0.918 | SHP2 N-SH2 domain L43F 0.869 | SHP2 N-SH2 domain T42A 0.611 | SHP2 N-SH2 domain T52S 0.889 | [2] 0.85

B34: MYH7_Y588 (peptide)
chain: AGIVDYNIIGW
inactive: SHP2 C-SH2 domain E139D 0.661 | [1] 0.737 | SHP2 N-SH2 domain L43F 0.695 | SHP2 N-SH2 domain T42A 0.66 | SHP2 N-SH2 domain T52S 0.626 | [2] 0.831

B35: MYH7_Y410_V406M (peptide)
chain: KMGNEYVTKGQ
inactive: SHP2 C-SH2 domain E139D 0.511 | [1] 0.635 | SHP2 N-SH2 domain L43F 0.543 | SHP2 N-SH2 domain T42A 0.462 | SHP2 N-SH2 domain T52S 0.494 | [2] 0.509

B36: MYL6_Y86_YF (peptide)
chain: KDQGTYEDFVE
inactive: SHP2 C-SH2 domain E139D 0.802 | [1] 0.126 | SHP2 N-SH2 domain L43F 0.98 | SHP2 N-SH2 domain T42A 0.382 | SHP2 N-SH2 domain T52S 0.274 | [2] 0.463

B37: MYO7A_Y2136_G2137E (peptide)
chain: IAINKYEVSLI
inactive: SHP2 C-SH2 domain E139D 1.42 | [1] 1.08 | SHP2 N-SH2 domain L43F 1.29 | SHP2 N-SH2 domain T42A 1.25 | SHP2 N-SH2 domain T52S 1.13 | [2] 1.35
